# Measured values as given in the supplement of paper PMC8728848.
# The other results are listed elsewhere or left out.
# B1: PVL (Psathyrella velutina), Q309D1_9AGAR (protein)
# chain: MSVVVISQALPVPTRIPGVADLVGFGNGGVYIIRNSLLIQVVKVINNFGYDAGGWRVEKHVRLLADTTGDNQPDVVGFGENGVWISTNNGNNTFVDPPKMVLANFAYAAGGWRVEKHIRFMADLRKTGRADIVGFGDGGIYISRNNGGGQFAPAQLALNNFGYAQGWRLDRHLRFLADVTGDGLLDVVGFGENQVYIARNSGNGTFQPAQAVVNNFCIGAGGWTISAHPRVVADLTGDRKADILGFGVAGVYTSLNNGNGTFGAVNLVLKDFGVNSGWRVEKHVRCVSSLTNKKVGDIIGFGDAGVYVALNNGNGTFGPVKRVIDNFGYNQGWRVDKHPRFVVDLTGDGCADIVGFGENSVWACMNKGDGTFGPIMKLIDDMTVSKGWTLQKTVRYAANLYL
# Legend:
# Experiment in all cases: glycan array binding signal (z-score within array); higher = stronger binding
# Conditions in all cases: glycan notation: IUPAC condensed, linker removed
# Neu5Ac(a2-8)Neu5Ac = biological target: Neu5Ac(a2-8)Neu5Ac
# Method in brief: (§1)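 Glycan array binding is given as a within-array Z-score, which can be read as non-binding when negative. The arrays, 3228 of them, came from the Consortium for Functional Glycomics database and were retained only where the protein sequence was available. Z-scores were averaged across arrays of the same protein sequence at different concentrations or buffers and across linkers.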
# [1] = biological target: Neu5Ac(a2-8)Neu5Ac(a2-3)Gal(b1-3)GalNAc(b1-4)[Neu5Ac(a2-3)]Gal(b1-4)Glc
# Method in brief: as §1
# [2] = biological target: Neu5Ac(a2-8)Neu5Ac(a2-3)Gal(b1-3)GalNAc(b1-4)[Neu5Ac(a2-8)Neu5Ac(a2-3)]Gal(b1-4)Glc
# Method in brief: as §1
# [3] = biological target: Neu5Ac(a2-8)Neu5Ac(a2-3)Gal(b1-4)Glc
# Method in brief: as §1
# [4] = biological target: Neu5Ac(a2-8)Neu5Ac(a2-3)Gal(b1-4)GlcNAc
# Method in brief: as §1
# [5] = biological target: Neu5Ac(a2-8)Neu5Ac(a2-3)[Gal(b1-3)GalNAc(b1-4)]Gal(b1-4)Glc
# Method in brief: as §1
# [6] = biological target: Neu5Ac(a2-8)Neu5Ac(a2-3)[GalNAc(b1-4)]Gal(b1-4)Glc
# Method in brief: as §1
# [7] = biological target: Neu5Ac(a2-8)Neu5Ac(a2-8)Neu5Ac
# Method in brief: as §1
# [8] = biological target: Neu5Ac(a2-8)Neu5Ac(a2-8)Neu5Ac(a2-3)Gal(b1-4)Glc
# Method in brief: as §1
# [9] = biological target: Neu5Ac(a2-8)Neu5Ac(a2-8)Neu5Ac(a2-3)[Gal(b1-3)GalNAc(b1-4)]Gal(b1-4)Glc
# Method in brief: as §1
# [10] = biological target: Neu5Ac(a2-8)Neu5Ac(a2-8)Neu5Ac(a2-3)[GalNAc(b1-4)]Gal(b1-4)Glc
# Method in brief: as §1
# [11] = biological target: Neu5Ac(a2-8)Neu5Ac(a2-8)Neu5Ac(a2-8)Neu5Ac(a2-3)[GalNAc(b1-4)]Gal(b1-4)Glc
# Method in brief: as §1
# [12] = biological target: Neu5Ac(a2-8)Neu5Gc(a2-3)Gal(b1-4)GlcNAc
# Method in brief: as §1
# [13] = biological target: Neu5Ac(b2-6)Gal(b1-4)GlcNAc
# Method in brief: as §1
# Neu5Ac(b2-6)GalNAc = biological target: Neu5Ac(b2-6)GalNAc
# Method in brief: as §1
# [14] = biological target: Neu5Ac9Ac(a2-3)Gal(b1-3)GlcNAc
# Method in brief: as §1
# [15] = biological target: Neu5Ac9Ac(a2-3)Gal(b1-4)GlcNAc
# Method in brief: as §1
# [16] = biological target: Neu5Ac9Ac(a2-6)Gal(b1-4)GlcNAc
# Method in brief: as §1
# [17] = biological target: Neu5Gc(a2-3)Gal(b1-3)GlcNAc
# Method in brief: as §1
# [18] = biological target: Neu5Gc(a2-3)Gal(b1-3)[Fuc(a1-4)]GlcNAc
# Method in brief: as §1
# Neu5Gc(a2-3)Gal(b1-4)Glc = biological target: Neu5Gc(a2-3)Gal(b1-4)Glc
# Method in brief: as §1
# [19] = biological target: Neu5Gc(a2-3)Gal(b1-4)GlcNAc
# Method in brief: as §1
# [20] = biological target: Neu5Gc(a2-3)Gal(b1-4)GlcNAc(b1-3)Gal(b1-4)GlcNAc(b1-2)Man(a1-3)[Neu5Gc(a2-3)Gal(b1-4)GlcNAc(b1-3)Gal(b1-4)GlcNAc(b1-2)Man(a1-6)]Man(b1-4)GlcNAc(b1-4)GlcNAc
# Method in brief: as §1
# [21] = biological target: Neu5Gc(a2-3)Gal(b1-4)[Fuc(a1-3)]GlcNAc
# Method in brief: as §1
# [22] = biological target: Neu5Gc(a2-6)Gal(b1-4)GlcNAc
# Method in brief: as §1
# Neu5Gc(a2-6)GalNAc = biological target: Neu5Gc(a2-6)GalNAc
# Method in brief: as §1
# [23] = biological target: Neu5Gc(a2-8)Neu5Ac(a2-3)Gal(b1-4)GlcNAc
# Method in brief: as §1
# [24] = biological target: Neu5Gc(a2-8)Neu5Gc(a2-3)Gal(b1-4)GlcNAc
# Method in brief: as §1
# [25] = biological target: Neu5Gc(a2-8)Neu5Gc(a2-3)Gal(b1-4)GlcNAc(b1-3)Gal(b1-4)GlcNAc
# Method in brief: as §1
# [26] = biological target: Neu5Gc(a2-8)Neu5Gc(a2-6)Gal(b1-4)GlcNAc
# Method in brief: as §1
# [27] = biological target: Neu5Gc(b2-6)Gal(b1-4)GlcNAc
# Method in brief: as §1
binder,measurement,setting,value
B1,glycan array binding signal (z-score),Neu5Ac(a2-8)Neu5Ac,-0.169
same,glycan array binding signal (z-score),[1],-0.344
same,glycan array binding signal (z-score),[2],-0.341
same,glycan array binding signal (z-score),[3],-0.328
same,glycan array binding signal (z-score),[4],-0.379
same,glycan array binding signal (z-score),[5],-0.332
same,glycan array binding signal (z-score),[6],-0.343
same,glycan array binding signal (z-score),[7],-0.323
same,glycan array binding signal (z-score),[8],-0.318
same,glycan array binding signal (z-score),[9],-0.349
same,glycan array binding signal (z-score),[10],-0.347
same,glycan array binding signal (z-score),[11],-0.301
same,glycan array binding signal (z-score),[12],-0.293
same,glycan array binding signal (z-score),[13],-0.357
same,glycan array binding signal (z-score),Neu5Ac(b2-6)GalNAc,-0.19
same,glycan array binding signal (z-score),[14],-0.327
same,glycan array binding signal (z-score),[15],-0.066
same,glycan array binding signal (z-score),[16],-0.217
same,glycan array binding signal (z-score),[17],-0.362
same,glycan array binding signal (z-score),[18],-0.348
same,glycan array binding signal (z-score),Neu5Gc(a2-3)Gal(b1-4)Glc,-0.357
same,glycan array binding signal (z-score),[19],-0.363
same,glycan array binding signal (z-score),[20],0.11
same,glycan array binding signal (z-score),[21],-0.318
same,glycan array binding signal (z-score),[22],-0.355
same,glycan array binding signal (z-score),Neu5Gc(a2-6)GalNAc,-0.353
same,glycan array binding signal (z-score),[23],-0.364
same,glycan array binding signal (z-score),[24],-0.364
same,glycan array binding signal (z-score),[25],-0.261
same,glycan array binding signal (z-score),[26],-0.408
same,glycan array binding signal (z-score),[27],-0.366
